From ChEMBL document CHEMBL4888484, “Replenishing the malaria drug discovery pipeline: Screening and hit evaluation of the MMV Hit Generation Library 1 (HGL1) against asexual blood stage Plasmodium falciparum ,using a nano luciferase reporter read-out” (2022)
The whole screen tested about 150,000 compounds, of which about 540 (0.36%) showed an effect of 50% or more. This is one part of the list.

tested on: Plasmodium falciparum; assay: Primary screen in NF54 nanoGlo assay, in single point, at 2uM, 72h; a lower Z score goes with more inhibition; assay type: functional, Erythrocyte; settings: timepoint 72 hour

Point of comparison: `CN(Cc1nc2ccccc2c(=O)[nH]1)C(=O)[C@@H]1CCCCO1`, “% Inhibition” value 10%. Against it:
- CC(C)c1noc([C@H](C)NC(c2ccccc2)c2ccccc2)n1 — lower, 1%
- Cc1cccc2c1NC(=O)[C@]21CC(=O)Nc2c1cnn2C(C)(C)C — lower, -14%
- CC(C)C(=O)N1CCN(c2ccc(-c3noc(C(F)(F)F)n3)cn2)CC1 — lower, -2%
- C[C@H](CC(=O)O)CC(=O)N1CCCCCC1 — lower, -1%
- COc1ccc(-c2cn(Cc3cnc(C)cn3)nn2)cc1Cn1cccn1 — lower, 1%
- COCCNCC#CCOc1ccc(OC)cc1 — lower, -13%
- Cc1cc(C(=O)N2CCOCC2)nn1CC(=O)NCc1c(F)cccc1F — lower, -5%
- Cc1cccc(OCC(=O)N2CCC[C@H]2c2nnc(C(=O)Nc3ccc(F)cc3)s2)c1 — lower, 0%
- Cc1ccc(CC(=O)N2CCCO2)cn1 — lower, -1%
- CC(C)(C)OC(=O)N1CC(OC(=O)NC[C@H]2CCCO2)C1 — lower, 4%
- CN(CCc1ccccc1)[C@H]1CCCNC1 — lower, -2%
- CCC(C)C(NC(=O)c1ccco1)c1nc(-c2ccc3c(c2)OCO3)no1 (stereo unspecified) — lower, -10%
- OCc1ccccc1CNC(=NC1CC1)NCc1ccccc1 — lower, -3%
- CC(C)C(=O)N1CC[C@H](CC(=O)NCc2ccccc2)C1 — higher, 38%
- CNC(=O)c1nc(C(=O)NCc2ccco2)cs1 — higher, 33%
- Cc1ccc(NS(=O)(=O)c2cccc(N(C)C)c2)cn1 — lower, -10%
- CC(C)(C)n1nnc(C(=O)N(CC(F)F)c2ccc(F)cc2)n1 — lower, -7%
- Cc1ccc2c(=O)c(C(=O)N3CCCC3)cn(CC(=O)Nc3c(C)cccc3C)c2n1 — lower, 1%
- CCOC(=O)c1c(N2CCN(c3ccccc3)CC2)cc(C)nc1C — lower, -14%
- Cc1ccc(-c2nc3nc(C)c(CC(=O)N4CCN(c5ccccc5)CC4)c(C)n3n2)cc1 — lower, -6%
- Cc1ccc(-n2nc(C(=O)N[C@@H](C)c3ccccc3)c(=O)n(Cc3cccc(F)c3)c2=O)cc1 — lower, -3%
- N#Cc1ccc(N[C@@H]2C=C[C@H](CO)C2)nc1 — lower, 1%
- CCCCN(CC)c1cc(Oc2ccc(F)cc2F)ncn1 — lower, -7%
- CCN1CCc2ccc(NC(=O)N3CCC[C@]3(C)CO)cc21 — lower, -15%
- CN(CCc1cccs1)S(=O)(=O)CCO[C@H]1CCOC1 — lower, -4%
- Cc1ccc(CN(Cc2ccco2)C(=O)Nc2ccccc2)o1 — lower, 1%
- CCC(=O)Nc1ccc(Cc2nc3cc(C(=O)N4CCC(C)CC4)ccc3[nH]2)cc1 — lower, -14%
- COc1cc(OC)cc(C(=O)N[C@@H](C)c2ccccc2)c1 — lower, -15%
- Nc1c(-c2ccc(F)c(F)c2)ncnc1N1CCCCC1 — lower, -2%
- O=C1[C@@H]2Cc3c([nH]c4ccccc34)CN2C(=O)CN1Cc1ccccc1Cl — lower, -4%
- CC1CCOC1C(=O)NCCCNc1cccc(F)c1 (stereo unspecified) — lower, -7%
- Cc1nc(-c2cccc(NC(=O)c3cc(Cl)c4c(c3)OCCCO4)c2)cs1 — lower, -25%
- Cc1nnc(CN2CCCCCC2CC(O)c2cccs2)s1 (stereo unspecified) — lower, -2%
- Cc1cc(C(=O)N(Cc2cc(C3CC3)n(C)n2)C2CCCC2)no1 — lower, -8%
- Cn1ccc(C(=O)Nc2ccc(F)c(NC(=O)C3CCCCC3)c2)cc1=O — lower, -30%
- O=C(NCCN1CCOCC1)C1CCCCC1 — lower, 2%
- c1cc(-c2nc([C@H]3CCOC3)n[nH]2)nc(-n2cnnc2)c1 — lower, -22%
- CN(C)c1cccc(C(=O)N2CCC[C@H](c3nccn3CC3CC3)C2)c1 — lower, -12%
- O=C(CN1CCCC1C1CCCC1)N1CCOC2CCCCC21 (stereo unspecified) — lower, 8%
- Cc1ccc(-c2noc3c(NCc4cccc(Cl)c4)ncnc23)cc1 — lower, -14%
- O=C(c1ccccc1Cc1ccc(Cl)cc1)N1CCC[C@H]1CO — lower, 4%
- COCC[C@H]1CN(CCCCc2ccccc2)CCO1 — lower, -11%

Point of comparison: `COCCNCC#CCOc1ccc(OC)cc1`, Z score 1.62. Against it:
- CC(C)c1noc([C@H](C)NC(c2ccccc2)c2ccccc2)n1 — lower, -0.12
- Cc1cccc2c1NC(=O)[C@]21CC(=O)Nc2c1cnn2C(C)(C)C — higher, 1.68
- CC(C)C(=O)N1CCN(c2ccc(-c3noc(C(F)(F)F)n3)cn2)CC1 — lower, 0.29
- C[C@H](CC(=O)O)CC(=O)N1CCCCCC1 — lower, 0.15
- COc1ccc(-c2cn(Cc3cnc(C)cn3)nn2)cc1Cn1cccn1 — lower, -0.05
- Cc1cc(C(=O)N2CCOCC2)nn1CC(=O)NCc1c(F)cccc1F — lower, 0.97
- Cc1cccc(OCC(=O)N2CCC[C@H]2c2nnc(C(=O)Nc3ccc(F)cc3)s2)c1 — lower, -0.09
- Cc1ccc(CC(=O)N2CCCO2)cn1 — lower, 0.07
- CC(C)(C)OC(=O)N1CC(OC(=O)NC[C@H]2CCCO2)C1 — lower, -0.73
- CN(CCc1ccccc1)[C@H]1CCCNC1 — lower, 0.31
- CCC(C)C(NC(=O)c1ccco1)c1nc(-c2ccc3c(c2)OCO3)no1 (stereo unspecified) — higher, 1.95
- OCc1ccccc1CNC(=NC1CC1)NCc1ccccc1 — lower, 0.45
- CC(C)C(=O)N1CC[C@H](CC(=O)NCc2ccccc2)C1 — lower, -1
- CNC(=O)c1nc(C(=O)NCc2ccco2)cs1 — lower, -4.82
- Cc1ccc(NS(=O)(=O)c2cccc(N(C)C)c2)cn1 — lower, 0.97
- CC(C)(C)n1nnc(C(=O)N(CC(F)F)c2ccc(F)cc2)n1 — lower, 0.99
- Cc1ccc2c(=O)c(C(=O)N3CCCC3)cn(CC(=O)Nc3c(C)cccc3C)c2n1 — lower, -0.22
- CCOC(=O)c1c(N2CCN(c3ccccc3)CC2)cc(C)nc1C — higher, 1.82
- Cc1ccc(-c2nc3nc(C)c(CC(=O)N4CCN(c5ccccc5)CC4)c(C)n3n2)cc1 — lower, 0.86
- Cc1ccc(-n2nc(C(=O)N[C@@H](C)c3ccccc3)c(=O)n(Cc3cccc(F)c3)c2=O)cc1 — lower, 0.39
- N#Cc1ccc(N[C@@H]2C=C[C@H](CO)C2)nc1 — lower, -0.11
- CCCCN(CC)c1cc(Oc2ccc(F)cc2F)ncn1 — lower, 1.04
- CN(Cc1nc2ccccc2c(=O)[nH]1)C(=O)[C@@H]1CCCCO1 — lower, -1.41
- CCN1CCc2ccc(NC(=O)N3CCC[C@]3(C)CO)cc21 — higher, 2.06
- CN(CCc1cccs1)S(=O)(=O)CCO[C@H]1CCOC1 — lower, 0.85
- Cc1ccc(CN(Cc2ccco2)C(=O)Nc2ccccc2)o1 — lower, -0.21
- CCC(=O)Nc1ccc(Cc2nc3cc(C(=O)N4CCC(C)CC4)ccc3[nH]2)cc1 — higher, 1.65
- COc1cc(OC)cc(C(=O)N[C@@H](C)c2ccccc2)c1 — higher, 1.65
- Nc1c(-c2ccc(F)c(F)c2)ncnc1N1CCCCC1 — lower, 0.23
- O=C1[C@@H]2Cc3c([nH]c4ccccc34)CN2C(=O)CN1Cc1ccccc1Cl — lower, 0.46
- CC1CCOC1C(=O)NCCCNc1cccc(F)c1 (stereo unspecified) — lower, 1.01
- Cc1nc(-c2cccc(NC(=O)c3cc(Cl)c4c(c3)OCCCO4)c2)cs1 — higher, 2.95
- Cc1nnc(CN2CCCCCC2CC(O)c2cccs2)s1 (stereo unspecified) — lower, 0.34
- Cc1cc(C(=O)N(Cc2cc(C3CC3)n(C)n2)C2CCCC2)no1 — lower, 1.52
- Cn1ccc(C(=O)Nc2ccc(F)c(NC(=O)C3CCCCC3)c2)cc1=O — higher, 3.49
- O=C(NCCN1CCOCC1)C1CCCCC1 — lower, -0.29
- c1cc(-c2nc([C@H]3CCOC3)n[nH]2)nc(-n2cnnc2)c1 — higher, 4.22
- CN(C)c1cccc(C(=O)N2CCC[C@H](c3nccn3CC3CC3)C2)c1 — higher, 1.63
- O=C(CN1CCCC1C1CCCC1)N1CCOC2CCCCC21 (stereo unspecified) — lower, -1.43
- Cc1ccc(-c2noc3c(NCc4cccc(Cl)c4)ncnc23)cc1 — higher, 1.91
- O=C(c1ccccc1Cc1ccc(Cl)cc1)N1CCC[C@H]1CO — lower, -0.69
- COCC[C@H]1CN(CCCCc2ccccc2)CCO1 — lower, 1.17
